According to the supplement of paper PMC6451100:
The list shows a part of the results. Read counts after selection give these values, which scatter widely.

System: Drosophila AGO1 (endogenous, S2-R+ lysate)
Test: AGO1 loading enrichment factor (IP read count / input read count, not library-size normalised) (ratio); higher = more efficient loading into AGO1
Details: randomized region: 5' 5N of miR-317 loop
Protocol: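 HISSA: 5'-phosphorylated, 32P-labelled 20-nt ssRNA oligos (miR-317 loop, first 5 nt randomized, constant 3' part TGAAATGCAAGCAAG as printed in methods; DNA letters for RNA) incubated 1 h at 25°C in S2-R+ cell lysate. Endogenous AGO1 was immunopurified with anti-AGO1 and bound oligos were sequenced after splinted ligation.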
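Note: S2-R+ lysate came from cells stably expressing FLAG-tagged AGO2, enrichment per 5N variant computed with FASTAptamer, reads lacking the constant 3′ segment discarded.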

Sequence | AGO1 loading enrichment factor
GAGAATGAAATGCAAGCAAG | 0.171
CATTATGAAATGCAAGCAAG | 0.0709
ATAACTGAAATGCAAGCAAG | 0.103
ATGATTGAAATGCAAGCAAG | 0.422
AAAGCTGAAATGCAAGCAAG | 0.0445
TATAGTGAAATGCAAGCAAG | 0.338
GAAACTGAAATGCAAGCAAG | 0.145
GAAGGTGAAATGCAAGCAAG | 0.279
TGGCATGAAATGCAAGCAAG | 0.132
TTGAGTGAAATGCAAGCAAG | 0.602
TTGGCTGAAATGCAAGCAAG | 0.219
ATTGATGAAATGCAAGCAAG | 0.194
GTTTCTGAAATGCAAGCAAG | 0.0601
CGATTTGAAATGCAAGCAAG | 0.115
CCGCCTGAAATGCAAGCAAG | 0.417
ACTTTTGAAATGCAAGCAAG | 0.117
GCTGGTGAAATGCAAGCAAG | 0.027
TCAGGTGAAATGCAAGCAAG | 0.251
TTTGCTGAAATGCAAGCAAG | 1.01
AGGACTGAAATGCAAGCAAG | 0.167
TGAACTGAAATGCAAGCAAG | 0.225
ACAATTGAAATGCAAGCAAG | 0.181
CCTCATGAAATGCAAGCAAG | 0.225
CTGAATGAAATGCAAGCAAG | 0.345
AGTACTGAAATGCAAGCAAG | 0.0807

Sequence | AGO1 loading enrichment factor
ACTTATGAAATGCAAGCAAG | 0.185
GTGACTGAAATGCAAGCAAG | 1.24
CACCTTGAAATGCAAGCAAG | 0.00322
AGACTTGAAATGCAAGCAAG | 0.0309
TACAATGAAATGCAAGCAAG | 0.338
GCTGCTGAAATGCAAGCAAG | 0.0482
GGGCATGAAATGCAAGCAAG | 0.0806
AGCCATGAAATGCAAGCAAG | 0.203
CGTGTTGAAATGCAAGCAAG | 0.0666
TTTATTGAAATGCAAGCAAG | 0.239
GATACTGAAATGCAAGCAAG | 0.173
GTAAGTGAAATGCAAGCAAG | 0.119
TATCCTGAAATGCAAGCAAG | 1.71
GCACTTGAAATGCAAGCAAG | 0.0663
TGGGTTGAAATGCAAGCAAG | 0.365
CACAGTGAAATGCAAGCAAG | 0.177
AGGAATGAAATGCAAGCAAG | 0.144
TGAATTGAAATGCAAGCAAG | 0.0883
TACCTTGAAATGCAAGCAAG | 0.792
AATTCTGAAATGCAAGCAAG | 0.223
TTCGATGAAATGCAAGCAAG | 0.312
TACGATGAAATGCAAGCAAG | 0.67
GGAGATGAAATGCAAGCAAG | 0.64
TTTAGTGAAATGCAAGCAAG | 0.218
TTGGATGAAATGCAAGCAAG | 0.632

Sequence | AGO1 loading enrichment factor
TGTTATGAAATGCAAGCAAG | 0.123
GGACATGAAATGCAAGCAAG | 4.06
AGAGCTGAAATGCAAGCAAG | 0.0492
AGCCTTGAAATGCAAGCAAG | 0.132
ATTTGTGAAATGCAAGCAAG | 0.105
CTTGGTGAAATGCAAGCAAG | 0.0146
CAAAGTGAAATGCAAGCAAG | 0.153
TCCTTTGAAATGCAAGCAAG | 0.425
CGGTTTGAAATGCAAGCAAG | 0.0615
GGTAGTGAAATGCAAGCAAG | 0.143
CTGTATGAAATGCAAGCAAG | 0.0978
TGCACTGAAATGCAAGCAAG | 0.0538
TTTTTTGAAATGCAAGCAAG | 0.116
CAAGCTGAAATGCAAGCAAG | 0.00891
TTTGATGAAATGCAAGCAAG | 0.417
GGTGTTGAAATGCAAGCAAG | 0.22
CCCAATGAAATGCAAGCAAG | 0.113
TATGGTGAAATGCAAGCAAG | 0.394
GGCGGTGAAATGCAAGCAAG | 0.425
GGCGCTGAAATGCAAGCAAG | 0.115
AACGGTGAAATGCAAGCAAG | 0.293
CTTCATGAAATGCAAGCAAG | 0.0629
TCCGTTGAAATGCAAGCAAG | 0.399
CCGTATGAAATGCAAGCAAG | 0.0418
CGGCCTGAAATGCAAGCAAG | 0.135

Sequence | AGO1 loading enrichment factor
TGCAATGAAATGCAAGCAAG | 0.0415
CACCATGAAATGCAAGCAAG | 0.141
AATCTTGAAATGCAAGCAAG | 0.0537
CAACTTGAAATGCAAGCAAG | 0.00689
TGTATTGAAATGCAAGCAAG | 0.142
CTGAGTGAAATGCAAGCAAG | 0.0773
GCCATTGAAATGCAAGCAAG | 0.204
CAACCTGAAATGCAAGCAAG | 0.423
TTGGGTGAAATGCAAGCAAG | 0.428
GTCCCTGAAATGCAAGCAAG | 0.114
TACTTTGAAATGCAAGCAAG | 0.259
CCGGCTGAAATGCAAGCAAG | 0.0679
TCACGTGAAATGCAAGCAAG | 0.912
CAAATTGAAATGCAAGCAAG | 0.157
GGAGCTGAAATGCAAGCAAG | 0.056
TACTATGAAATGCAAGCAAG | 0.247
CGCGTTGAAATGCAAGCAAG | 0.0424
ACCCTTGAAATGCAAGCAAG | 0.00967
AGCAGTGAAATGCAAGCAAG | 0.0465
GAGCTTGAAATGCAAGCAAG | 0.228
TCGAGTGAAATGCAAGCAAG | 0.344
TCAGATGAAATGCAAGCAAG | 0.265
AGCGCTGAAATGCAAGCAAG | 0.053
GCTCCTGAAATGCAAGCAAG | 0.118
CCGTCTGAAATGCAAGCAAG | 0.281

Sequence | AGO1 loading enrichment factor
ATAATTGAAATGCAAGCAAG | 0.139
TACATTGAAATGCAAGCAAG | 0.655
AGTAATGAAATGCAAGCAAG | 0.0795
TCGCATGAAATGCAAGCAAG | 0.365
GAACCTGAAATGCAAGCAAG | 0.288
CCTGGTGAAATGCAAGCAAG | 0.138
TCGCCTGAAATGCAAGCAAG | 0.636
CTCTTTGAAATGCAAGCAAG | 0.135
GCGAATGAAATGCAAGCAAG | 1.35
GCTAATGAAATGCAAGCAAG | 0.123
GCGCATGAAATGCAAGCAAG | 0.935
GCTTATGAAATGCAAGCAAG | 0.00489
CCGGATGAAATGCAAGCAAG | 0.234
GGAAGTGAAATGCAAGCAAG | 0.292
CAGGTTGAAATGCAAGCAAG | 0.0799
GCTTCTGAAATGCAAGCAAG | 0.0131
ATTAATGAAATGCAAGCAAG | 0.136
TAGTATGAAATGCAAGCAAG | 0.283
AAGACTGAAATGCAAGCAAG | 0.368
CTATATGAAATGCAAGCAAG | 0.138
CCCGTTGAAATGCAAGCAAG | 0.107
GCGTCTGAAATGCAAGCAAG | 0.147
TGCATTGAAATGCAAGCAAG | 0.0206
GTTGGTGAAATGCAAGCAAG | 0.131
GATATTGAAATGCAAGCAAG | 0.122

Sequence | AGO1 loading enrichment factor
ATAGCTGAAATGCAAGCAAG | 0.0729
ACGTGTGAAATGCAAGCAAG | 0.137
ACGACTGAAATGCAAGCAAG | 1.25
TAGGGTGAAATGCAAGCAAG | 0.488
CATGCTGAAATGCAAGCAAG | 0.129
ACATATGAAATGCAAGCAAG | 0.114
ACCTATGAAATGCAAGCAAG | 0.187
GTATATGAAATGCAAGCAAG | 0.104
CGGGATGAAATGCAAGCAAG | 0.682
CATCCTGAAATGCAAGCAAG | 0.134
ATCTTTGAAATGCAAGCAAG | 0.0875
TTGGTTGAAATGCAAGCAAG | 0.553
GACGCTGAAATGCAAGCAAG | 0.378
AAAAATGAAATGCAAGCAAG | 0.175
TGTCTTGAAATGCAAGCAAG | 0.017
TTACCTGAAATGCAAGCAAG | 0.404
TGGTCTGAAATGCAAGCAAG | 0.137
CAGACTGAAATGCAAGCAAG | 0.209
TCCCCTGAAATGCAAGCAAG | 1.41
CCGCGTGAAATGCAAGCAAG | 0.0866
TCGATTGAAATGCAAGCAAG | 0.239
ACAGGTGAAATGCAAGCAAG | 0.165
CCCGGTGAAATGCAAGCAAG | 0.178
TTGTCTGAAATGCAAGCAAG | 0.16
ATCAATGAAATGCAAGCAAG | 0.16

Sequence | AGO1 loading enrichment factor
GGGGATGAAATGCAAGCAAG | 4.06
GGAAATGAAATGCAAGCAAG | 0.146
GAAAGTGAAATGCAAGCAAG | 0.121
GATGTTGAAATGCAAGCAAG | 0.141
CCGAGTGAAATGCAAGCAAG | 0.104
TTGAATGAAATGCAAGCAAG | 1.9
ATCACTGAAATGCAAGCAAG | 0.174
TGGGGTGAAATGCAAGCAAG | 1.71
CCAGGTGAAATGCAAGCAAG | 0.0668
ATATTTGAAATGCAAGCAAG | 0.134
AGACCTGAAATGCAAGCAAG | 0.119
CACGTTGAAATGCAAGCAAG | 0.0506
TGACCTGAAATGCAAGCAAG | 0.147
ACTGGTGAAATGCAAGCAAG | 0.153
GAATCTGAAATGCAAGCAAG | 0.135
GCTCTTGAAATGCAAGCAAG | 0.0351
TCGGCTGAAATGCAAGCAAG | 0.217
ATTATTGAAATGCAAGCAAG | 0.119
ACCCATGAAATGCAAGCAAG | 0.171
CTGGTTGAAATGCAAGCAAG | 0.151
GTCAGTGAAATGCAAGCAAG | 0.16
AGTCGTGAAATGCAAGCAAG | 0.111
TCTTTTGAAATGCAAGCAAG | 0.514
GTCACTGAAATGCAAGCAAG | 0.216
TCTAATGAAATGCAAGCAAG | 0.242

Sequence | AGO1 loading enrichment factor
CTCATTGAAATGCAAGCAAG | 0.196
AATTATGAAATGCAAGCAAG | 0.126
TGTTCTGAAATGCAAGCAAG | 0.0526
GTGAATGAAATGCAAGCAAG | 0.62
CTCGCTGAAATGCAAGCAAG | 0.00511
ACTTGTGAAATGCAAGCAAG | 0.204
GATGCTGAAATGCAAGCAAG | 0.0443
TCCCTTGAAATGCAAGCAAG | 0.867
AACGCTGAAATGCAAGCAAG | 0.135
GAAGATGAAATGCAAGCAAG | 0.194
ACGATTGAAATGCAAGCAAG | 0.191
GACCTTGAAATGCAAGCAAG | 0.131
GTACGTGAAATGCAAGCAAG | 0.0928
GCTATTGAAATGCAAGCAAG | 0.18
CTCTGTGAAATGCAAGCAAG | 0.0084
CCTTATGAAATGCAAGCAAG | 0.179
TGCTGTGAAATGCAAGCAAG | 0.0632
CTTTGTGAAATGCAAGCAAG | 0.032
GTGTATGAAATGCAAGCAAG | 0.0596
GGCTCTGAAATGCAAGCAAG | 0.176
CGAACTGAAATGCAAGCAAG | 0.113
GCCACTGAAATGCAAGCAAG | 0.123
